From ChEMBL document CHEMBL4888484, “Replenishing the malaria drug discovery pipeline: Screening and hit evaluation of the MMV Hit Generation Library 1 (HGL1) against asexual blood stage Plasmodium falciparum ,using a nano luciferase reporter read-out” (2022)
Among all 150,000 compounds or so, about 540 (0.36%) showed an effect of 50% or more. The list shows a part of the results.

test system: Plasmodium falciparum; assay: Primary screen in NF54 nanoGlo assay, in single point, at 2uM, 72h; a lower Z score goes with more inhibition; format: functional, Erythrocyte; settings: timepoint 72 hour

SMILES	% Inhibition [%]	Z score
CNC(=O)CCOC(=O)c1cc(Cl)cc(C(F)(F)F)c1	2	-0.32
C[C@H](NC(=O)c1ccccc1N1CCC(NC(=O)c2ccc(Br)cc2)CC1)c1ccccc1	0	0.04
Cc1noc(C)c1CNc1nnc(CC2CCCCC2)s1	-6	1.07
CCO[C@@H](C)c1noc(CNC(=O)N2CCCCC2)n1	-11	1.44
COCCn1ccc(NC2CC3CCC2C3)n1 (centres undefined)	2	-0.24
O[C@@H](Cn1cnc2cc(F)c(F)cc21)C1(O)CCC1	-9	1.69
Cc1ccsc1CN(C)[C@H]1CCN(C(C)(C)C)C1=O	5	-0.73
CCc1nnc(CNC(=O)c2ccc3c(c2)OCO3)o1	-10	1.48
Cc1nc([C@@H]2CCCCN2C(=O)Nc2ccc(Cl)cc2Cl)n[nH]1	-3	0.57
CN(C)C(=O)N1CCC(c2nc(-c3ccc4c(c3)OCO4)no2)CC1	2	-0.24
CCc1ncncc1C(=O)Nc1ccc(Br)c(C)n1	-1	0.12
Nc1c(C(=O)N2CCCCC2)sc(=S)n1-c1ccc(F)c(Cl)c1	-4	0.5
Cn1cncc1-c1ccc([C@@H]2CNCCO2)cc1	17	-2.04
O=C(Nc1ccccc1C#Cc1ccccc1)c1ccc(-c2ccccc2)cc1	-1	0.17
COC(=O)N[C@@H](C)c1ccc(C(C)C)cc1	-13	1.88
CCC(=O)N1CC[C@H](C(=O)NC(C)(C)c2cc(C(F)(F)F)on2)C1	-6	0.78
O=C(Nc1ccsc1)Nc1ccn(CCc2ccncc2)n1	1	-0.08
CC(NS(=O)(=O)N(C)C(C)C)C1CCCO1 (centres undefined)	-8	1.17
O=C(c1ccc2c(=O)n(-c3ccccc3)c(N3CCCCC3)nc2c1)N1CCN(c2ccccc2)CC1	-10	1.92
COc1ccnc(C(=O)N2Cc3nc(C)n(C)c(=O)c3C2)c1	-21	2.02
O=C1c2ccccc2N[C@H](c2ccc(O)c(Br)c2)N1c1ccc2c(c1)OCCO2	-5	0.46

SMILES	% Inhibition [%]	Z score
O=C(c1ccccc1)N1C[C@@H]2Oc3ncccc3S(=O)(=O)N[C@@H]2C1	-9	1.3
Cc1cc(C)c2c(C)c(C(=O)Nc3ccc(-n4cnnn4)cc3)oc2c1	1	-0.17
Cc1cc(C)n2ncc(-c3cc(C4CCC4)nc(N)c3C#N)c2n1	-10	1.4
CC1CCC(NC(=O)Cn2nccc2-c2cccnc2)CC1 (centres undefined)	-5	0.98
Cc1ccccc1[C@]1(O)CCN(C(=O)c2ccc(N3CC(=O)NC3=O)cc2)C1	-11	1.06
Cc1ncsc1CCNC(=O)N(C)Cc1ccoc1	-16	1.56
CCn1c(NCc2cc(Br)ccc2O)nc2ccccc21	4	-0.42
N#Cc1ccccc1Cn1nc(-c2cccnc2)n(C2CC2)c1=O	-1	0.16
CN(C(=O)CC#N)[C@@H]1c2ccccc2N(C(=O)OC(C)(C)C)C[C@H]1O	-16	1.84
COc1ccc(-c2c(C)nn3c(N4CCC(C(=O)NC5CC5)CC4)cc(C)nc23)cc1OC	43	-5.65
CN(C)C(=O)CCc1nc(-c2cccc3c2ccn3C)nn1C(C)(C)C	-17	1.83
O=C(c1c[nH]c2ncnn2c1=O)N1C[C@@H]2CC[C@H]1CN(Cc1ccccn1)C2	-2	0.3
O=C(c1ccccc1-n1cnnn1)N1CC2CC=CCC2C1 (centres undefined)	3	-0.42
O=c1c2occc2ccn1CCNS(=O)(=O)C1CC1	-12	2
CCCc1ccc(CCCC(=O)N2CCNC(=O)[C@@H]2C)cc1	0	-0.03
COc1ccc(Cn2nnc3cc(C(=O)Nc4ccc(C)cc4C)ccc32)cc1	-2	0.34
C#CCOC[C@@H](O)CN(Cc1c(C)nn(-c2ccccc2)c1Oc1ccc(Cl)cc1)C1CC1	10	-1.24
O=S(=O)(C1C[C@@H]2CC[C@H]1C2)N1CCc2cnccc21 (some centres undefined)	3	-0.39
C[C@]1(C(=O)O)CCN(C(=O)CCC=Cc2ccccc2)C1	-6	0.69
COc1ccc(NC(=O)Cc2c(C)nn(-c3nc(C)cs3)c2C)cc1	0	0.03
Cc1c(C(=O)Nc2ccccc2)[n+]([O-])cn1-c1ccc2[nH]c(CC(C)C)nc2c1	-12	1.83
